Data from the supplement of paper PMC12067230.
Single values of this set are uncertain.
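Also: [psi-pin-] Saccharomyces cerevisiae expressing SupN fusions, induced by 100 µM Cu2SO4, selected 7 d at 30 °C without adenine and uracil, scored by deep sequencing of output versus input.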

Assay: amyloid nucleation score relative to library mode (yeast Sup35 reporter selection) (log enrichment difference); higher = more amyloid nucleation; sequences are the first 22 residues of the Bri2 peptide extended by up to 12 random residues
Conditions: random library (experiment): 1;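 active = nucleation score significantly above 0 at FDR 0.05; inactive = not significantly above 0 or absent from output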
Work on EASNCFAIRHFENKFAVETLICFFRPRLCNECCC yielded an amyloid nucleation score of 1.3. For EASNCFAIRHFENKFAVETLICFFRVGRWVPQAG, the amyloid nucleation score was “inactive”. In the case of EASNCFAIRHFENKFAVETLICFFSMLGSKHFRT, the amyloid nucleation score was “inactive”. For EASNCFAIRHFENKFAVETLICFFSTRGRYMLVT, the amyloid nucleation score was “inactive”. EASNCFAIRHFENKFAVETLICFFVVFLYDIRSL gave an amyloid nucleation score of 3.97. With EASNCFAIRHFENKFAVETLICFFWFRLITVPGE the amyloid nucleation score was “inactive”. In the case of EASNCFAIRHFENKFAVETLICFFWTTQCVCGWW, the amyloid nucleation score was “inactive”. In the case of EASNCFAIRHFENKFAVETLICFG, the amyloid nucleation score was “inactive”. Sequence EASNCFAIRHFENKFAVETLICFGASRNNGCNRR has an amyloid nucleation score of 5.3. Work on EASNCFAIRHFENKFAVETLICFGCFKVRKTWDS yielded an amyloid nucleation score of 3.78. EASNCFAIRHFENKFAVETLICFGCGVVQRWLGN showed an amyloid nucleation score of 8.67. EASNCFAIRHFENKFAVETLICFGGLGL showed an amyloid nucleation score of 7.56. With EASNCFAIRHFENKFAVETLICFGHVRFG the amyloid nucleation score was 7.79. EASNCFAIRHFENKFAVETLICFGLMCVVAGHRR showed an amyloid nucleation score of 3.21. With EASNCFAIRHFENKFAVETLICFGNEDSSSICYW the amyloid nucleation score was 6.86. Work on EASNCFAIRHFENKFAVETLICFGPPSAMPTAHY yielded an amyloid nucleation score of 4.45. Work on EASNCFAIRHFENKFAVETLICFGQPAGGMPSLR yielded an amyloid nucleation score of 2.39. For EASNCFAIRHFENKFAVETLICFGRLELSKYVEA, the amyloid nucleation score was 5.15. For EASNCFAIRHFENKFAVETLICFGRRCRLVCSNW, the amyloid nucleation score was “inactive”. With EASNCFAIRHFENKFAVETLICFGSALN the amyloid nucleation score was 7.37. With EASNCFAIRHFENKFAVETLICFGSLSRW the amyloid nucleation score was 6.72. In the case of EASNCFAIRHFENKFAVETLICFGT, the amyloid nucleation score was “inactive”. Work on EASNCFAIRHFENKFAVETLICFGVMRAT yielded an amyloid nucleation score of 6.55. In the case of EASNCFAIRHFENKFAVETLICFGVTGKNLAKVW, the amyloid nucleation score was “inactive”. With EASNCFAIRHFENKFAVETLICFGVTLVGLWGRM the amyloid nucleation score was “inactive”. In the case of EASNCFAIRHFENKFAVETLICFGW, the amyloid nucleation score was 8.06. For EASNCFAIRHFENKFAVETLICFHALDHSRGRSA, the amyloid nucleation score was “inactive”. For EASNCFAIRHFENKFAVETLICFHDNGVFRKYAS, the amyloid nucleation score was “inactive”. For EASNCFAIRHFENKFAVETLICFHNANIMWSDFV, the amyloid nucleation score was “inactive”. For EASNCFAIRHFENKFAVETLICFHNVCLLMCRM, the amyloid nucleation score was “inactive”. For EASNCFAIRHFENKFAVETLICFHRKVEVRVKGR, the amyloid nucleation score was “inactive”. EASNCFAIRHFENKFAVETLICFHRSSYCIGPDL showed an amyloid nucleation score of 3.53. In the case of EASNCFAIRHFENKFAVETLICFHRVDLKVFSDR, the amyloid nucleation score was -0.163. EASNCFAIRHFENKFAVETLICFHW showed an amyloid nucleation score of 7.95. In the case of EASNCFAIRHFENKFAVETLICFHWISVPGKEGG, the amyloid nucleation score was 0.466. For EASNCFAIRHFENKFAVETLICFHYLEVRELILA, the amyloid nucleation score was “inactive”. EASNCFAIRHFENKFAVETLICFI gave an amyloid nucleation score of 6.61. With EASNCFAIRHFENKFAVETLICFIAF the amyloid nucleation score was 4.62. For EASNCFAIRHFENKFAVETLICFIHC, the amyloid nucleation score was 4.98.

Same assay, conditions: random library (experiment): 2
For EASNCFAIRHFENKFAVETLICFFNFYFLYRWAD, the amyloid nucleation score was -0.122. With EASNCFAIRHFENKFAVETLICFFQYAYFRFSFV the amyloid nucleation score was “inactive”. In the case of EASNCFAIRHFENKFAVETLICFFRYSWDTDLWV, the amyloid nucleation score was “inactive”. For EASNCFAIRHFENKFAVETLICFFSGVRVGGNLA, the amyloid nucleation score was “inactive”. With EASNCFAIRHFENKFAVETLICFFSLRKRFILTG the amyloid nucleation score was “inactive”. For EASNCFAIRHFENKFAVETLICFFVFNTFSFLH, the amyloid nucleation score was “inactive”. With EASNCFAIRHFENKFAVETLICFFVLHTVIEVWS the amyloid nucleation score was “inactive”. For EASNCFAIRHFENKFAVETLICFFVRKGCYCAGI, the amyloid nucleation score was “inactive”. In the case of EASNCFAIRHFENKFAVETLICFFVSYVKMGR, the amyloid nucleation score was “inactive”. For EASNCFAIRHFENKFAVETLICFFVTYCEWYSSF, the amyloid nucleation score was “inactive”. With EASNCFAIRHFENKFAVETLICFFVVCVGCWSGR the amyloid nucleation score was “inactive”. In the case of EASNCFAIRHFENKFAVETLICFFVYYSYISVC, the amyloid nucleation score was “inactive”. With EASNCFAIRHFENKFAVETLICFGA the amyloid nucleation score was 5.2. EASNCFAIRHFENKFAVETLICFGAGQTACGHAW gave an amyloid nucleation score of 6.5. For EASNCFAIRHFENKFAVETLICFGAPWEPLCSPG, the amyloid nucleation score was -0.174. EASNCFAIRHFENKFAVETLICFGCPIHDSIGEV showed an amyloid nucleation score of 8.62. For EASNCFAIRHFENKFAVETLICFGCTYLVSFKCA, the amyloid nucleation score was “inactive”. With EASNCFAIRHFENKFAVETLICFGDGSW the amyloid nucleation score was 8.27. In the case of EASNCFAIRHFENKFAVETLICFGECSVTLNYGW, the amyloid nucleation score was 9.13. For EASNCFAIRHFENKFAVETLICFGENRE, the amyloid nucleation score was 5.23. With EASNCFAIRHFENKFAVETLICFGGQYLVLLPCR the amyloid nucleation score was “inactive”. In the case of EASNCFAIRHFENKFAVETLICFGLLYRHFFLAS, the amyloid nucleation score was “inactive”. In the case of EASNCFAIRHFENKFAVETLICFGMGNSVGDGLG, the amyloid nucleation score was 8.68. In the case of EASNCFAIRHFENKFAVETLICFGMRLNVPGFVP, the amyloid nucleation score was 1.06. Sequence EASNCFAIRHFENKFAVETLICFGMVFI has an amyloid nucleation score of 7.54. For EASNCFAIRHFENKFAVETLICFGMYNHLIKANA, the amyloid nucleation score was “inactive”. Sequence EASNCFAIRHFENKFAVETLICFGPLFKKLDADY has an amyloid nucleation score of 3.25. Sequence EASNCFAIRHFENKFAVETLICFGRNQGHRGMSG has an amyloid nucleation score of 3.82. In the case of EASNCFAIRHFENKFAVETLICFGRS, the amyloid nucleation score was 6.12. EASNCFAIRHFENKFAVETLICFGS gave an amyloid nucleation score of 4.65. For EASNCFAIRHFENKFAVETLICFGSVGSFNCFAG, the amyloid nucleation score was 8.5. With EASNCFAIRHFENKFAVETLICFGVTVIC the amyloid nucleation score was 7.1. For EASNCFAIRHFENKFAVETLICFHCFIISLLVRS, the amyloid nucleation score was “inactive”. In the case of EASNCFAIRHFENKFAVETLICFHEC, the amyloid nucleation score was 2.48. In the case of EASNCFAIRHFENKFAVETLICFHFFYNPSLCNA, the amyloid nucleation score was 0.625. With EASNCFAIRHFENKFAVETLICFHHSQSMDAGNR the amyloid nucleation score was “inactive”. With EASNCFAIRHFENKFAVETLICFHIRM the amyloid nucleation score was 3.63. For EASNCFAIRHFENKFAVETLICFHIVV, the amyloid nucleation score was “inactive”. EASNCFAIRHFENKFAVETLICFHLCSCWDWLSH showed an amyloid nucleation score of 7.48. With EASNCFAIRHFENKFAVETLICFHPIDWSAGWLG the amyloid nucleation score was 5.77. With EASNCFAIRHFENKFAVETLICFHVCGKYGSVMW the amyloid nucleation score was 3.51. Sequence EASNCFAIRHFENKFAVETLICFHVVSKNRVDWD has an amyloid nucleation score of 2.27. In the case of EASNCFAIRHFENKFAVETLICFHYCLYGCIR, the amyloid nucleation score was “inactive”. With EASNCFAIRHFENKFAVETLICFHYR the amyloid nucleation score was 5.11. Work on EASNCFAIRHFENKFAVETLICFICCSSGVVHVM yielded an amyloid nucleation score of 8.75. In the case of EASNCFAIRHFENKFAVETLICFICYSICLRDRV, the amyloid nucleation score was “inactive”. For EASNCFAIRHFENKFAVETLICFIEICLKRLVT, the amyloid nucleation score was “inactive”. With EASNCFAIRHFENKFAVETLICFIFFKHRLVYWS the amyloid nucleation score was “inactive”. In the case of EASNCFAIRHFENKFAVETLICFIFNTHRFLACG, the amyloid nucleation score was “inactive”. In the case of EASNCFAIRHFENKFAVETLICFIFNTRVTLLFW, the amyloid nucleation score was “inactive”. In the case of EASNCFAIRHFENKFAVETLICFIFYALFWFFTP, the amyloid nucleation score was “inactive”. In the case of EASNCFAIRHFENKFAVETLICFIGTVCFSFMVF, the amyloid nucleation score was “inactive”. For EASNCFAIRHFENKFAVETLICFIGYVNGSGCCE, the amyloid nucleation score was 7.18. Sequence EASNCFAIRHFENKFAVETLICFIHFRDSKTRRA has an amyloid nucleation score of -0.14. Work on EASNCFAIRHFENKFAVETLICFIHYSFHFANDC yielded an amyloid nucleation score of -0.148.

Same assay, conditions: random library (experiment): 3
In the case of EASNCFAIRHFENKFAVETLICFFRHRAPTACGL, the amyloid nucleation score was “inactive”. Sequence EASNCFAIRHFENKFAVETLICFFTANNNFIRHR has an amyloid nucleation score of 3.47. For EASNCFAIRHFENKFAVETLICFFVICYFSFVAW, the amyloid nucleation score was 1.2. With EASNCFAIRHFENKFAVETLICFFVQLTQLCACM the amyloid nucleation score was “inactive”. With EASNCFAIRHFENKFAVETLICFGARWEVVKYVS the amyloid nucleation score was “inactive”. In the case of EASNCFAIRHFENKFAVETLICFGFVLAMLAGTL, the amyloid nucleation score was “inactive”. EASNCFAIRHFENKFAVETLICFGHNTLVLSCF showed an amyloid nucleation score of 7.17. In the case of EASNCFAIRHFENKFAVETLICFGLTLRNCVPV, the amyloid nucleation score was “inactive”. For EASNCFAIRHFENKFAVETLICFGRKLTQIVTGW, the amyloid nucleation score was “inactive”. EASNCFAIRHFENKFAVETLICFGRPRYCRRVFM gave an amyloid nucleation score of 3.35. With EASNCFAIRHFENKFAVETLICFGSGFEV the amyloid nucleation score was 5.71. Work on EASNCFAIRHFENKFAVETLICFGSSIEGGPGRG yielded an amyloid nucleation score of 7.7. With EASNCFAIRHFENKFAVETLICFGTCVRPALSTV the amyloid nucleation score was “inactive”. EASNCFAIRHFENKFAVETLICFGVQLVGEHRRV gave an amyloid nucleation score of 9.54. For EASNCFAIRHFENKFAVETLICFHALPLLAPLSG, the amyloid nucleation score was “inactive”. With EASNCFAIRHFENKFAVETLICFHE the amyloid nucleation score was “inactive”. With EASNCFAIRHFENKFAVETLICFHEIFYPVGPAL the amyloid nucleation score was 0.0944. In the case of EASNCFAIRHFENKFAVETLICFHHLVCV, the amyloid nucleation score was “inactive”. For EASNCFAIRHFENKFAVETLICFHNFNTFDVTTH, the amyloid nucleation score was 3.45. For EASNCFAIRHFENKFAVETLICFHR, the amyloid nucleation score was 3.08. Sequence EASNCFAIRHFENKFAVETLICFHRHSNFIGM has an amyloid nucleation score of 2.41. Sequence EASNCFAIRHFENKFAVETLICFHYEYQHRFTEA has an amyloid nucleation score of 2.8. EASNCFAIRHFENKFAVETLICFHYTYCWSTGVS showed an amyloid nucleation score of 5.99. For EASNCFAIRHFENKFAVETLICFIACTPRFHSSE, the amyloid nucleation score was “inactive”. For EASNCFAIRHFENKFAVETLICFIDVLYLNFNTD, the amyloid nucleation score was “inactive”. For EASNCFAIRHFENKFAVETLICFIEYYSGFVKKD, the amyloid nucleation score was “inactive”. In the case of EASNCFAIRHFENKFAVETLICFIGYGEVSRACL, the amyloid nucleation score was 7.22.
